# Laboratory results: PubChem BioAssay AID2675 (National Center for Advancing Translational Sciences (NCATS), 2010)
# Out of some 280,000 compounds screened, about 100 (0.036%) were called active. The inconclusive results got no clear call from the source; some entries with a clear call stand among them for comparison. The call rests on the fitted dose curve; in most records, active means well fitted inhibition curve with a large enough effect in the signal ratio, with a control signal flat (not every such curve was filed as active); inconclusive means small, poorly fitted or top-dose-only effect, or effect the other way, or a change in a side signal; inactive means no such curve, though single readings can be large or run the other way; the % refers to the signal ratio. Potencies beside an inconclusive call are fits to weak or partial responses and may not hold up. “Side channel” marks fits to a control or component signal instead of the main read-out.
# Molecular target: Muscleblind-like protein 1 (Homo sapiens) (UniProt Q9NR56)
# Chain of UniProt Q9NR56 (Q9NR56 whole entry, looked up): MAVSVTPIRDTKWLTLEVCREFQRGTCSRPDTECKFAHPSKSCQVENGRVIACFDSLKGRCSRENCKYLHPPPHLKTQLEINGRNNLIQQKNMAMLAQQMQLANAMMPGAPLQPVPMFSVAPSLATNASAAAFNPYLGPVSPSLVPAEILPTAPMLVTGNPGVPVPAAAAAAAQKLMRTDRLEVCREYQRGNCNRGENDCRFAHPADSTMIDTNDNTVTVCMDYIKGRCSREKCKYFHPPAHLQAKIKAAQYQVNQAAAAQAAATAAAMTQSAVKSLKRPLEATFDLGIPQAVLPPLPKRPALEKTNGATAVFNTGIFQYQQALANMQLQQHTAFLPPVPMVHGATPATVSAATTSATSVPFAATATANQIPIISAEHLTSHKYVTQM
# Experiment: qHTS Assay for Inhibitors of MBNL1-poly(CUG) RNA binding
# Details: TR-FRET MBNL1-His/biotin-(CUG)12 binding, 665/545 ratio; activity change, negative = inhibition: at 57.5 µM (top of the series)
# How it was run: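 Compound titration spanned 92 nM–58 uM against the MBNL1-His/biotin-(CUG)12 complex. After 60 min at room temperature with 5 nM streptavidin-XL665 and 0.055 ng/ul terbium anti-His, ratiometric 665/545 nm emission (Ex 340 nm) normalized to controls.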
# On the % scale 0 is the no-effect control and ±100 the full control effect; potency means the concentration at half of the fitted maximal effect; tags describe the fitted curve by direction and shape or compound fluorescence and quenching.
Structure (SMILES),Potency,"activity change, negative = inhibition"
O=C(CSc1nnnn1-c1ccccc1)Nc1ncc(Cc2ccccc2Cl)s1,"inconclusive: 35.5 µM [fluorescent, side channel, single point]",–
CCOc1ccccc1NC(=O)c1cc(S(=O)(=O)N2CCC3(CC2)OCCO3)ccc1F,"inconclusive: 39.8 µM [fluorescent, side channel, single point]",–
Cn1c(SCCCC(=O)c2ccc(F)cc2)nnc1-c1ccncc1,–,inactive: -10.3%
O=C(/C=C/c1cccc2ccccc12)c1ccncc1,–,inactive: 20.7%
Cc1cc(C)cc(C(=O)NN2CCN(C)CC2)c1,–,inactive: -10.2%
O=C(CSC1=NCCN1)Nc1ccccc1[N+](=O)[O-],"inconclusive: 15.8 µM [quencher, side channel, partial curve]",–
CC1CCCN(c2ccc(C(=O)Nc3cccnc3)cc2[N+](=O)[O-])C1 (centres undefined),"inconclusive: 28.2 µM [quencher, single point]",–
Cc1cccc(OCC(O)CN2C(C)(C)CC(O)CC2(C)C)c1 (centres undefined),–,inactive: -1.57%
CN(C)CCCN(C(=O)CCc1ccccc1)c1nc2ccc(F)cc2s1,–,inactive: -4.06%
O=C(COC(=O)c1n[nH]c2ccccc12)Nc1ccc(Cl)cc1[N+](=O)[O-],"inconclusive: 25.1 µM [quencher, side channel, single point]",–
CCN1CCN(C(=O)/C=C/c2ccccc2[N+](=O)[O-])CC1,"inconclusive: 17.8 µM [quencher, side channel, partial curve]",–
Cc1oc(-c2cccs2)nc1CN1CCN(C2CCCC2)C(CCO)C1 (centres undefined),–,inactive: -2.57%
Cn1cc(C(=O)Nc2cccc(F)c2)cn1,–,inactive: -7.12%
O=C(O)c1ccc(S(=O)(=O)c2ccc3c(c2)C(=O)N(c2ccccc2[N+](=O)[O-])C3=O)cc1,"inconclusive: 17.8 µM [quencher, side channel, partial curve]",–
CNc1cc(C)c(C#N)c2nc3ccccc3n12,–,inactive: 11.6%
COc1ccc(OC)c2sc(Cl)nc12,–,inactive: 18.7%
COc1ccc2nc3ccccc3nc2c1NC(=O)c1ccccc1Cl,"inconclusive: 4.47 µM [quencher, side channel, full curve]",–
Cc1ccc(CSc2nnc3ccc(-c4ccncc4)nn23)cc1,"inconclusive: 22.4 µM [quencher, partial curve]",–
CN1CCCc2cc(C=O)ccc21,"inconclusive: 14.1 µM [quencher, side channel, partial curve]",–
CC(O)CN=c1cc(-c2ccccc2)oc2ccc(Cl)cc12 (centres undefined),"inconclusive: 14.1 µM [quencher, partial curve]",–

Structure (SMILES),Potency,"activity change, negative = inhibition"
CCOC(=O)c1sc2nc(C)[nH]c(=S)c2c1C,"inconclusive: 39.8 µM [fluorescent, side channel, single point]",–
COc1ccc(C(CCNCc2ccc(N(C)C)cc2)c2ccccc2OC)cc1 (centres undefined),–,inactive: 3.1%
Cc1ccc2nc(SCC(=O)c3c(C)[nH]c4ccccc34)[nH]c2c1,"inconclusive: 2 µM [fluorescent, side channel, full curve, poor fit]",–
Cc1cccc(-c2nc(=S)c3c(n2Cc2ccco2)CCCC3)c1,"inconclusive: 28.2 µM [fluorescent, side channel, partial curve]",–
N#Cc1cc([N+](=O)[O-])ccc1NC(=O)COC(=O)CCC1CCCCC1,"inconclusive: 35.5 µM [quencher, side channel, single point]",–
Cc1ccnc(Sc2ccc([N+](=O)[O-])cc2[N+](=O)[O-])n1,"inconclusive: 11.2 µM [quencher, side channel, partial curve]",–
N#CC1=C(S)N(c2ccccc2)C(c2ccc(-c3cccc(Cl)c3)o2)NC1=O (centres undefined),"inconclusive: 25.1 µM [quencher, side channel, single point]",–
CC(=O)Nc1ccc(N=c2cc([N+](=O)[O-])cc(Cl)n2O)cc1,"inconclusive: 10 µM [quencher, side channel, partial curve]",–
COc1ccc(Cl)cc1NC(=O)CSc1nc(N2CCCCC2)nc(N2CCCCC2)n1,"inconclusive: 39.8 µM [quencher, side channel, single point]",–
CC[n+]1ccc(/C=C2\Sc3ccccc3N2CCCS(=O)(=O)[O-])c2ccccc21,"inconclusive: 4.47 µM [quencher, side channel, partial curve]",–
COc1cccc(C(=O)Nc2cccc(C(=O)NC3=NN(c4c(Cl)cc(Cl)cc4Cl)C(=O)C3)c2)c1,"inconclusive: 0.1 µM [quencher, side channel, full curve, poor fit]",–
NCCCC[C@@H]1NC(=O)c2cc([N+](=O)[O-])cc(I)c2SC[C@@H](C(=O)NCC(N)=O)NC(=O)CNC1=O,"inconclusive: 25.1 µM [quencher, side channel, partial curve]",–
CCOC(=O)C1=NN(c2ccc([N+](=O)[O-])cc2)CC1C(=O)OC (centres undefined),"inconclusive: 11.2 µM [quencher, side channel, partial curve]",–
CCCCCCOC(=O)C(C#N)c1nc2ccccc2nc1N1CCN(CC)CC1 (centres undefined),"inconclusive: 15.8 µM [quencher, side channel, partial curve]",–
Clc1ccccc1-c1nc2ccccc2c2nc3ccccc3n12,"inconclusive: 0.1 µM [fluorescent, side channel, full curve]",–
COc1ccc(-c2c(N)nnc3c2[nH]c2ccccc23)cc1OC,"inconclusive: 14.1 µM [quencher, side channel, partial curve]",–
Cc1cc2nc(C)c(Cl)c(=O)n2[nH]1,"inconclusive: 100 µM [inhibitor, partial curve]",–
COc1ccc(N/N=C(/N=Nc2nc(C)cc(=O)[nH]2)c2ccccc2)cc1,"inconclusive: 7.08 µM [quencher, side channel, partial curve]",–
CCn1c(SCc2ccc(Cl)cc2)nc2nc3c(cc2c1=O)CCCC3,"inconclusive: 0.1 µM [fluorescent, side channel, full curve, poor fit]",–
